{"source": "PubChem BioAssay AID1346428", "about": "(National Center for Advancing Translational Sciences (NCATS), 2018)", "note": "Values joined by “and” are separate entries in the source; they are usually repeats but may differ in a detail not shown here. Identical values can stand only once. In all, about 48,000 compounds went through this assay and about 1,200 (2.5%) were called active. Another 2% or so got no clear call; they are omitted.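 The calls were made as follows: active = activation of at least 60% and not above a set upper limit (about 1 call in 100 departs from these limits); inconclusive = activation of 40% to 60%, or above that upper limit; inactive = activation under 40%.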 Some of the results follow.", "data": [{"target": "Probable G-protein coupled receptor 32 (Homo sapiens) (UniProt O75388)", "sequence (O75388 whole entry, looked up)": "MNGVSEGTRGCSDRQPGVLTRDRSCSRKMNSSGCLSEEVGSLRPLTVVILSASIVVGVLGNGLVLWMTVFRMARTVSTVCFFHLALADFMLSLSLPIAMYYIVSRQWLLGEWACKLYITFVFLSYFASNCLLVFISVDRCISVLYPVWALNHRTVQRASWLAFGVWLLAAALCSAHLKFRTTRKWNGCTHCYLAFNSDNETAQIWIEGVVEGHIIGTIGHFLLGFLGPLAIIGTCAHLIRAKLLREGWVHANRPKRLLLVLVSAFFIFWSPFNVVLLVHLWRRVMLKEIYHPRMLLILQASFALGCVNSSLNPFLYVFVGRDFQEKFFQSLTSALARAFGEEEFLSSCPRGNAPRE", "assay": "qHTS for Agonists of Human Resolvin D1 Receptor DRV1; also: 0% is about no effect", "details": "CHO-K1 GPR32 beta-arrestin PathHunter luminescence, 90 min; at 76.9 µM; hits give high values; zero percent set by DMSO-only wells", "how_it_was_run": "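Using DMSO wells as EC0, agonist-induced signal was taken as chemiluminescence from beta-Gal reconstituted upon beta-arrestin recruitment to GPR32 in CHO-K1 cells after 90 min compound treatment.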", "values": [{"compound": "COC(=O)c1ccc(NC(=O)c2cc(S(=O)(=O)N3CCOCC3)cn2C)cc1", "activation": "inactive: 0.71%"}, {"compound": "Cc1ccccc1OCC(=O)Nc1ccc(S(=O)(=O)N(Cc2ccccc2)c2ccccc2)cc1", "activation": "inactive: -5.37%"}, {"compound": "COc1ccc(Cn2c(=O)c3oc4ccccc4c3n(CC(=O)Nc3c(C)cccc3C)c2=O)cc1", "activation": "inactive: -5.25%"}, {"compound": "Cc1ccc(C(=O)COC(=O)CCC(=O)Nc2ccc(Oc3ccccc3)cc2)cc1", "activation": "inactive: -12.2%"}, {"compound": "COc1ccc(-c2nc3c(c(SCc4ccc(Br)cc4)n2)Cc2c(CO)cnc(C)c2O3)cc1", "activation": "inactive: 27.3%"}, {"compound": "Cc1ccc(OCCSc2nnc(-c3cccs3)o2)cc1", "activation": "inactive: -1.23%"}, {"compound": "Cc1oc2cc3oc(=O)c(CCC(=O)NCCc4ccccc4F)c(C)c3cc2c1C", "activation": "inactive: -14.5%"}, {"compound": "CCC(=O)N1c2ccccc2CC1C(=O)NCc1ccc(CC)cc1", "note": "(centres undefined)", "activation": "inactive: 5.55%"}, {"compound": "CN1CCN(C(=O)c2cnn(-c3ccc(F)cc3F)c2C2CCN(C(=O)OC(C)(C)C)CC2)CC1", "activation": "inactive: -10%"}, {"compound": "COc1ccc(NC(=O)Nc2nnc(N3CCCC3)s2)cc1", "activation": "inactive: -7.35%"}, {"compound": "Cc1ccc2c(c1)c1c(c(=O)n(-c3ccccc3)c(=O)n1Cc1ccccc1C)n2C", "activation": "inactive: 5.72%"}, {"compound": "Cc1cc(C)cc(N(CC(=O)NCCc2ccc(Cl)cc2)S(=O)(=O)c2c(C)noc2C)c1", "activation": "inactive: -3.03%"}, {"compound": "Cc1ccc(NC(=O)c2c(C)oc3ccc(O)c(CN4CCOCC4)c23)cc1", "activation": "inactive: 6.25%"}, {"compound": "CC(=O)c1ccc(S(=O)(=O)NC(=O)NC2CCCCC2)cc1", "activation": "inactive: 1.33% and inactive: -0.322%"}, {"compound": "Cc1ccc2c(=O)cc(C(=O)N(Cc3ccc(C(C)(C)C)cc3)C3CCS(=O)(=O)C3)oc2c1", "note": "(centres undefined)", "activation": "inactive: -2.51%"}, {"compound": "CCC(=O)N1CCN(C(=O)c2ccccc2)CC1", "activation": "inactive: -1.9%"}, {"compound": "CC(=O)N1CCCC1c1nc2ccccc2n1Cc1cccc(C)c1", "note": "(centres undefined)", "activation": "inactive: -4.46%"}, {"compound": "COc1ccc(OCC(=O)NCc2ccc3c(c2)CCN3C(=O)c2cccc(C)c2)cc1", "activation": "inactive: -4.27%"}, {"compound": "COc1ccc2c(c1)c(CC(=O)Nc1c(C)cccc1C)c(C)n2C(=O)c1ccc(Cl)cc1", "activation": "inactive: 14.7%"}, {"compound": "CSc1ccc(CCNC(=O)c2ccc(-n3c(C)cc4c3CCC(C)C4)cc2)cc1", "note": "(centres undefined)", "activation": "inactive: -1.65%"}, {"compound": "Cc1cc(C)cc(NC(=O)CCn2cnc3ccccc3c2=O)c1", "activation": "inactive: 4.32%"}, {"compound": "CCOc1ccccc1NC(=O)Cn1c(=O)n(-c2ccc(C)cc2)c(=O)c2c1cnn2C", "activation": "inactive: 19.3%"}, {"compound": "CCc1cccc(NC(=O)CC(c2ccc(OC)cc2)N2Cc3ccccc3C2=O)c1", "note": "(centres undefined)", "activation": "inactive: -18%"}, {"compound": "CC(C)c1ccc(C2NC(=O)c3c(sc4c3CCN(C)C4)N2)cc1", "note": "(centres undefined)", "activation": "inactive: -16.5%"}, {"compound": "CCOc1ccc(N(CC(=O)OC)S(=O)(=O)c2ccc3c(c2)n(C)c(=O)c(=O)n3C)cc1", "activation": "inactive: -5.1%"}, {"compound": "CCC(C)NC(=O)Cn1c(=O)n(-c2ccc(Cl)cc2)c(=O)c2c3c(sc21)CCCC3", "note": "(centres undefined)", "activation": "inactive: -9.23%"}, {"compound": "Cc1ccc(-n2nnnc2SCC(=O)NCCc2ccccc2)cc1C", "activation": "inactive: 20.6%"}, {"compound": "CCCCC(=O)OC1=CN(Cc2ccccc2)S(=O)(=O)c2ccccc21", "activation": "inactive: -22.1%"}, {"compound": "Cc1ccc(C)c(N2CCN(C(=O)c3c(C)oc4nc(C)nc(N5CCOCC5)c34)CC2)c1", "activation": "inactive: -17.1%"}, {"compound": "CCc1nnc(NC(=O)CSc2nccn2Cc2ccc(Cl)cc2)s1", "activation": "inactive: 13.2%"}, {"compound": "CCCc1nnc(SCc2cc(=O)c3c(C)cc(C)cc3[nH]2)n1C", "activation": "inactive: -10.2%"}, {"compound": "C=CCC(CC=C)(CNC(=O)C(=O)Nc1ccc(Br)cc1)c1ccc(OC)c(OC)c1", "activation": "inactive: -3.56%"}, {"compound": "CCCN[C@H]1CCc2nc(N)sc2C1", "activation": "inactive: 3.36%"}, {"compound": "Cc1ccc(OCCCn2c(-c3ccc(Cl)cc3)nc3ccccc3c2=O)cc1C", "activation": "inactive: -3.22%"}, {"compound": "O=C(NCC(c1ccc2c(c1)OCO2)N1CCN(c2ccccc2)CC1)c1ccc(F)c(F)c1", "note": "(centres undefined)", "activation": "inactive: -20.2%"}, {"compound": "O=C(Nc1ccc(F)cc1F)C1CCN(C(=O)c2cnn(-c3ccccc3)c2-n2cccc2)CC1", "activation": "inactive: 11.7%"}, {"compound": "O=C(NCc1cccc(Cl)c1)c1cnc(N2CCOCC2)c2ccccc12", "activation": "inactive: -20.2%"}, {"compound": "Cn1cccc1-c1cc2n(n1)CCC(=O)N2CCCC(=O)NCc1cccc(Cl)c1", "activation": "inactive: 2.16%"}, {"compound": "CCOc1ccc(NS(=O)(=O)c2c(C)nc3sc(CC)nn3c2=O)cc1", "activation": "inactive: 12%"}, {"compound": "COCCNC(=O)c1ccc2c(c1)ncn2-c1cc(C)ccc1OC", "activation": "inactive: 3.17%"}, {"compound": "CCc1ccc(CNC(=O)Cn2nc(C)c3nn(-c4ccc(Cl)cc4)c(C)c3c2=O)cc1", "activation": "inactive: -11.1%"}, {"compound": "COc1cc(NC(=O)Cc2noc3ccccc23)cc(OC)c1OC", "activation": "inactive: -18.5%"}, {"compound": "O=C(CN1C(=O)COc2ccc(S(=O)(=O)N3CCCCCC3)cc21)N1CCN(c2ccc(Cl)cc2)CC1", "activation": "inactive: 0.778%"}, {"compound": "CCOC(=O)c1ccc(NC(=O)CC(C)n2nc(C)cc2C)cc1", "note": "(centres undefined)", "activation": "inactive: -3.49%"}, {"compound": "Cc1ccc(C)c(Nc2nn3c(=O)c4ccc(C(=O)NCc5ccccc5)cc4nc3s2)c1", "activation": "active: 63.1%"}, {"compound": "COc1ccc(CNC(=O)c2cc(-c3ccc(Br)s3)nc3ccccc23)cc1", "activation": "inactive: 3.84%"}, {"compound": "O=c1[nH]c(C2CCCN(S(=O)(=O)c3ccccc3)C2)nc2c1nnn2Cc1ccccc1Br", "note": "(centres undefined)", "activation": "inactive: -23.6%"}, {"compound": "CCOC(=O)c1cccc(NC(=O)Nc2c(C)n(C)n(-c3ccccc3)c2=O)c1", "activation": "inactive: -16.4%"}, {"compound": "Cc1cccc(-n2ncc3c(NNC(=O)c4ccccc4Cl)ncnc32)c1", "activation": "inactive: -0.104%"}, {"compound": "COc1ccc(-c2ccc(=O)n(CC(=O)Nc3cc(OC)ccc3OC)n2)cc1", "activation": "inactive: -12.3%"}, {"compound": "CCCCN(CC)CCCNC(=O)c1cn(C)c(=O)c2c1c1ccccc1n2C", "activation": "inactive: -19.6%"}, {"compound": "Cc1cccc(C)c1NC(=O)Cn1cc(C(=O)C2CC2)c2ccccc21", "activation": "inactive: -8.79%"}, {"compound": "Cc1nn(CCC(=O)Nc2cccc(C#N)c2)c(C)c1S(=O)(=O)N1CCCCC1", "activation": "inactive: -10.4%"}, {"compound": "Cc1ccc(C)c(CN2C(=O)c3ccccc3S(=O)c3ccc(C(=O)N4CCCCC4)cc32)c1", "note": "(centres undefined)", "activation": "inactive: -7.56%"}]}]}
